# Experimental data from ChEMBL document CHEMBL4888484, “Replenishing the malaria drug discovery pipeline: Screening and hit evaluation of the MMV Hit Generation Library 1 (HGL1) against asexual blood stage Plasmodium falciparum ,using a nano luciferase reporter read-out” (2022).
# The campaign covered roughly 150,000 compounds. About 540 (0.36%) showed an effect of 50% or more. The list shows a part of the results.
# Test system: Plasmodium falciparum
# Assay: Primary screen in NF54 nanoGlo assay, in single point, at 2uM, 72h; a lower Z score goes with more inhibition
# Assay type: functional, Erythrocyte
# Conditions: timepoint 72 hour
SMILES,% Inhibition [%],Z score
Cc1cc(Br)c(N)cc1F,-15,1.72
CCN1Cc2nc(OC)c(CNC(=O)c3cc(C)n[nH]3)cc2C1=O,6,-0.76
CC(=O)N[C@H]1CN(C(=O)CCc2c(C)n[nH]c2C)C[C@@H]1c1ccc(C)cc1,-6,1.09
CN(c1nc2c(cnn2C)c(=O)[nH]1)C1CCCC1c1ccc(C(F)(F)F)cc1 (centres undefined),36,-1.07
O=C(NC1CCC1)c1ccc(S(=O)(=O)NCc2ccncc2)cc1,-9,1.37
CCCC[C@H]1C(=O)N(C)CCN1C(=O)c1cnn2ccccc12,-8,0.7
C[C@@H]([C@H](O)c1ccc(O)cc1)n1ccnc1-c1coc(-c2ccccc2)n1,-1,0.11
O=C(Nc1ccc(Cl)c(N2CCCS2(=O)=O)c1)c1ccc(Br)o1,11,-1.36
O=C(N[C@@]12COC[C@@H]1C2)c1ccsc1C(F)F,-3,0.34
c1cc(-c2nccn2CCN2CCCCC2)cc(-n2cccn2)c1,-12,2.38
CCc1nc2c(c(OC3CCN(C(=O)NC4CCCC4)CC3)n1)CCOCC2,-1,0.07
COC(=O)c1cc(-c2cccnc2OC)c[nH]1,11,-1.45
Cn1c(Cn2cnc3ccccc32)nnc1-c1ccc(Cl)cc1,-9,0.74
O=C1Nc2ccccc2CC[C@@H]1n1nc(-c2ccco2)ccc1=O,30,-3.38
Cc1cc(C(N)=O)cc(S(=O)(=O)N2CCc3ccc(C(=O)O)cc3CC2)c1,-5,0.69
O=C(NCCc1cccs1)C1CCN(C(=O)c2cnsn2)CC1,8,-1.05
Cc1cccc([C@@H](O)CN2CCC(N3CCCS3(=O)=O)CC2)c1,-8,0.91
COC1CCN(c2nc(C3CCCC3)nc3c2CCNCC3)CC1,-13,1.43
COc1ccc(NC(=O)CCN2CCC[C@H]2c2ccncc2)cc1,4,-0.41
O=S(=O)(NCc1cncc(-c2cccs2)c1)c1cccnc1,-1,0.12
Cc1nsc(N[C@@H](C)C(=O)NC(C)C)n1,-5,1.02

SMILES,% Inhibition [%],Z score
CCc1nnc(N2CC(c3n[nH]c(C)n3)C2)nc1CC,-10,1.58
Cc1cc(C)nc(O[C@H]2CCCN(C(=O)c3scnc3C)C2)n1,-7,1.05
COc1ccc(CNC(=O)N2C3CCC2CC(S(=O)(=O)c2ccccc2)C3)cc1OC (centres undefined),-10,1.25
O=C(Nc1ccc(N2CCCC2)c2ncccc12)c1cncs1,-11,2.13
Cc1nc(-c2cc(S(=O)(=O)NCc3ccc(C(C)C)cc3)c(C)s2)cs1,16,-1.85
CCc1nnc(CN(C)CC(=O)N2c3ccccc3C[C@@H]2C)o1,8,-1.11
CC1(C)C(NCC2CC(O)CN2Cc2ccccc2)C2CCCOC21 (centres undefined),1,-0.15
Cc1cnn(C2CN(CC(=O)NCc3ccc4c(c3)OCO4)C2)c1,15,-1.96
COc1ccccc1C(=O)Nc1ccc2c(c1)nc(CN1CCCCCC1)n2C,-5,0.84
Cc1nc(CCN2C(=O)CC3(CCC3)C2=O)cs1,-8,1.31
CC(C)n1ncc(C(=O)N[C@@H](C)COc2ccc(F)cc2F)c1C(F)(F)F,-7,0.73
CC1(NC(=O)c2ccc(O)cc2O)CCC1,3,-0.36
O=C1COc2ccc(S(=O)(=O)N3CCc4[nH]cnc4C3)cc2N1,-21,1.92
CC(C)(C)c1ccc(C(=O)N2CCN=C2N2CCN(c3cccc(Cl)c3)CC2)cc1,-5,0.93
CN(C[C@H]1CCCN2CCCC[C@@H]12)C(=O)C1CCC(Cn2cnnn2)CC1 (some centres undefined),3,-0.38
Cc1cc(O)nc(C(=O)Nc2ccc(Oc3ccnc4ccccc34)cc2)c1,-4,0.7
CCn1cnc2c1CCN(C(=O)c1occ3c1CCC3)C2,-16,1.46
CCOc1ncccc1NC(=O)CC(C)(C)C,2,-0.27
Nc1c(Cl)cc(C(=O)N2CCC[C@@H]2Cn2ccnc2)cc1Cl,14,-1.65
CCc1nnc(CN2CC3CCCC3(C(=O)OC)C2)o1 (centres undefined),-18,2.45
O=C(NC1CC(=O)N(C2CC2c2ccccc2)C1)C1CC1c1ccccc1F (centres undefined),-7,0.97
